Tests used:
[1] = tested on: U4A cells (lacking JAK 1); assay: Apoptotic (A0) fraction, Table 1, U4A; format: cell-based, human
Procedure: (§1) Annexin-V binding assay. Cells were trypsinized and washed once with complete media. Aliquots of cells (5×10^5) were resuspended in complete media (0.5 ml) and stained with FITC-labeled Annexin-V (Oncogene Research Products, Boston, Mass.) according to the manufacturer's instructions. Propidium Iodide (PI) was added to the samples after staining with Annexin-V to exclude late apoptotic and necrotic cells. FACS assay was performed immediately after staining. The percentage of the cells in the apoptotic (Ao) fraction was calculated using CellQuest software (Becton Dickinson).
(§2) Cell lines functionally deficient for JAK/STAT signaling were analyzed for susceptibility to killing. A human fibrosarcoma cell line 2f TGH (parental) and corresponding mutant cell lines derived from it were utilized, including U1A (lacking Tyk2), U3A (IFN-unresponsive, lacking STAT 1), U4A (lacking JAK 1) and USA (lacking IFNAR2c)(kind gift of G. Stark, Cleveland Clinic, Ohio). […] First, the profile of IL20/IL22 receptor gene expression in the 2f TGH series of cell lines was determined as described above for other cancer types.

2fTGH cells = assay: Apoptotic (A0) fraction, Table 1, 2fTGH; format: cell-based, human
Procedure: as §1, §2

[2] = tested on: interferon responsive luciferase reporter constructs, Type I (IFN-α and β) and Type II/GAS (IFN-γ); assay: Interferon responsive luciferase reporter test of inhibitor activity; format: cell-based; conditions: 48-72 h exposure post-transfection
[3] = tested on: U5A cells (lacking IFNAR2c); assay: Apoptotic (A0) fraction, Table 1, U5A; format: cell-based, human
Procedure: as §1, §2

[4] = tested on: C8161, DU-145, HO-1 cells; assay: Ad.mda-7 killing in presence of tyrosine kinase inhibitors (MTT); format: cell-based, human; conditions: DU-145, HO-1 and C8161
Procedure: (§3) Cells were analyzed for cell viability by the MTT proliferation assay as described, 5-days after infection.
(§4) MTT Assay. […] Treatment with inhibitors was initiated 4 h after infection. During a 5 to 7 day-treatment period, medium was changed twice with fresh inhibitor containing medium at day 3 and 6. […] The resulting absorbance measured at 595 nm is directly proportional to the number of viable cells.

[5] = tested on: DU-145 prostate cancer cells; assay: Apoptotic fraction (A0) by FACS in DU-145; format: cell-based, human; conditions: Ad.vec or Ad.mda-7 100 p.f.u./cell, 48 h
Procedure: as §3, §1

[6] = tested on: U3A cells (lacking STAT 1); assay: Apoptotic (A0) fraction, Table 1, U3A; format: cell-based, human
Procedure: as §1, §2

PC-3 cells = assay: Apoptotic (A0) fraction, Table 1, PC-3; format: cell-based, human
Procedure: as §1, §2

U1A cells (lacking Tyk2) = assay: Apoptotic (A0) fraction, Table 1, U1A; format: cell-based, human
Procedure: as §1, §2

[7] = tested on: GADD family of genes (GADD153, GADD34, GADD45alpha, GADD45gamma) in FO-1 cells; assay: Northern blot of GADD family mRNA in FO-1 cells; format: cell-based, human
Procedure: (§5) Total RNA was extracted and Northern analysis was performed using the indicated cDNA probes as described in Section 6. […] C.
(§6) RNA Isolation and Northern Blot Analysis. Total RNA was extracted from the cells using Qiagen RNeasy mini kit (Qiagen) according to the manufacturer's protocol and Northern blotting was performed as described in Su et al., 1997, Proc. Natl. Acad. Sci. USA. 94, 9125-9130. The cDNA probes used were full length human GADD153, full length human GADD45-alpha, beta and gamma, a 500-bp fragment from human GADD34 and full-length human GAPDH.

FO-1 melanoma cells = assay: MTT cell viability assay in FO-1 cells; format: cell-based, human; conditions: Ad.mda-7 100 pfu/cell; 1 μM SB203580 or Ad.p38DN 100 pfu/cell; 4 days
Procedure: FIG. 3. […] Cell viability was measured by MTT assay after 4 days.
FIG. 5. inhibition of the GADD family of genes protects FO-1 melanoma cells from Ad.mda-7-mediated cell death. FO-1 cells were transfected with the indicated antisense construct either alone or in combination. […] Cell viability was measured by MTT assay. Cell viability of Ad.vec treated cells was regarded as 1.
Cell Lines, Reagents and Cell Growth Assays. Normal immortal human melanocyte (FM516-SV; FM516), WM35 early radial growth phase (RGP) primary human melanoma and HO-1, FO-1 and MeWo metastatic melanoma cell lines were cultured as previously described (Kerbel et al., 1984, J. Natl. Cancer Inst. 72, 93-108; Fisher et al., 1985, J. Interferon Res. 5, 11-22; Herlyn,1990. Cancer Metastasis Rev. 9, 101-112; Melber et al., 1989, Cancer Res. 49, 3650-3655). SB203580 was purchased from Sigma (St Louis, Mo.). Cell growth and viable cell numbers were monitored by 3-(4,5-dimethylthiazol-2-yl)-2,5-diphenyl tetrazolium bromide (MTT) staining as described in Lebedeva et al., 2000, Cancer Res. 60, 6052-6060.

FO-1 cells [8] = assay: Dose-response studies of SB203580 in FO-1 cells
[9] = tested on: phospho-p38 MAPK and phospho-HSP27 in FO-1 cells; assay: Phosphorylation of p38 MAPK and HSP27 in FO-1 cells (Western blot); format: cell-based, human; conditions: Ad.mda-7 100 pfu/cell; 1 μM SB203580 or Ad.p38DN 100 pfu/cell, 3 days
FO-1 cells [10] = assay: DNA fragmentation assay in FO-1 cells; format: cell-based, human; conditions: Ad.mda-7 100 pfu/cell, 1 μM SB203580, 3 days
Procedure: (§7) FIG. 4A-C. […] DNA was isolated from the cells and fragmentation was analyzed as described in Section 6. […] Cell cycle was analyzed as described in Section 6. C. […] Percentage of apoptotic cells at day 1 and day 3 post-infection in each group were plotted.

[11] = tested on: 2f TGH series of cell lines; assay: MTT: p38 MAPK inhibitor effect on Ad.mda-7 killing in 2f TGH series; format: cell-based, human; conditions: SB203580 2 μM, Ad.mda-7 150 p.f.u./cell, MTT 6 days
Procedure: as §4

FO-1 cells [12] = assay: Cell cycle analysis (FACS), apoptotic cells in FO-1; format: cell-based, human; conditions: Ad.mda-7 100 pfu/cell; 1 μM SB203580 or Ad.p38DN 100 pfu/cell
Procedure: as §7
Cell cycle analysis. Cells were harvested, washed in PBS and fixed overnight at −20° C. in 70% ethanol. The cells were treated with RNase A (1 mg/ml) at 37° C. for 30 min and then with propidium iodide (50 μg/ml). Cell cycle was analyzed using a FACScan flow cytometer and data were analyzed using CellQuest software (Becton Dickinson, San Jose, Calif.).

[13] = tested on: BCL-2 protein in FO-1 cells; assay: Western blot of BCL-2 protein in FO-1 cells
[14] = tested on: GADD153, GADD34 and GADD45alpha proteins in FO-1 cells; assay: Western blot of GADD proteins in FO-1 cells; format: cell-based, human; conditions: Ad.mda-7 100 pfu/cell, 1 μM SB203580, 3 days
Procedure: as §5

[15] = tested on: C8161, PC-3, DU-145 cells; assay: MTT: p38 MAPK inhibitor effect on Ad.mda-7 killing; format: cell-based, human; conditions: SB203580 2 μM, Ad.mda-7 100 p.f.u./cell, MTT 5 days
Procedure: as §4

[16] = tested on: GADD family of genes in FM516-SV (FM516) cells; assay: Northern blot of GADD family genes in FM516 immortalized melanocytes; format: cell-based, human
Procedure: as §5, §6

[17] = Ad.mda-7 100 pfu/cell, different concentrations for 2 days

## N#CC(C#N)=Cc1ccc(O)c(O)c1 [AG18, tyrphostin AG18]
[1]; inhibitor + Ad.mda-7
  proportion of cells with sub G0/G1 (A0) DNA content: 36.14%
[1]; inhibitor + Ad.vec
  proportion of cells with sub G0/G1 (A0) DNA content: 10.47%
2fTGH cells; inhibitor + Ad.mda-7
  proportion of cells with sub G0/G1 (A0) DNA content: 15.64%
2fTGH cells; inhibitor + Ad.vec
  proportion of cells with sub G0/G1 (A0) DNA content: 4.64%
[2]
  activity of Type I and Type II/GAS IFN reporters: repressed
[3]; inhibitor + Ad.mda-7
  proportion of cells with sub G0/G1 (A0) DNA content: 33.43%
[3]; inhibitor + Ad.vec
  proportion of cells with sub G0/G1 (A0) DNA content: 3.77%
[4]
  Ad.mda-7 induced apoptosis in presence of inhibitor: did not prevent
[5]
  A0 (sub G0/G1) profile in presence of inhibitor: No overall profile change
[6]; inhibitor + Ad.mda-7
  proportion of cells with sub G0/G1 (A0) DNA content: 32.95%
[6]; inhibitor + Ad.vec
  proportion of cells with sub G0/G1 (A0) DNA content: 11.76%
PC-3 cells; inhibitor + Ad.mda-7
  proportion of cells with sub G0/G1 (A0) DNA content: 19.27%
PC-3 cells; inhibitor + Ad.vec
  proportion of cells with sub G0/G1 (A0) DNA content: 4.88%
U1A cells (lacking Tyk2); inhibitor + Ad.mda-7
  proportion of cells with sub G0/G1 (A0) DNA content: 18.79%
U1A cells (lacking Tyk2); inhibitor + Ad.vec
  proportion of cells with sub G0/G1 (A0) DNA content: 7.64%

## N#C/C(=C\c1ccc(O)c(O)c1)C(=O)NCc1ccccc1 [AG490]
[1]; inhibitor + Ad.mda-7
  proportion of cells with sub G0/G1 (A0) DNA content: 20.32%
[1]; inhibitor + Ad.vec
  proportion of cells with sub G0/G1 (A0) DNA content: 9.35%
2fTGH cells; inhibitor + Ad.mda-7
  proportion of cells with sub G0/G1 (A0) DNA content: 18.56%
2fTGH cells; inhibitor + Ad.vec
  proportion of cells with sub G0/G1 (A0) DNA content: 5.98%
[2]
  activity of Type I and Type II/GAS IFN reporters: repressed
[3]; inhibitor + Ad.mda-7
  proportion of cells with sub G0/G1 (A0) DNA content: 33.08%
[3]; inhibitor + Ad.vec
  proportion of cells with sub G0/G1 (A0) DNA content: 16.25%
[4]
  Ad.mda-7 induced apoptosis in presence of inhibitor: did not prevent
[5]
  A0 (sub G0/G1) profile in presence of inhibitor: No overall profile change
[6]; inhibitor + Ad.mda-7
  proportion of cells with sub G0/G1 (A0) DNA content: 30.52%
[6]; inhibitor + Ad.vec
  proportion of cells with sub G0/G1 (A0) DNA content: 12.84%
PC-3 cells; inhibitor + Ad.mda-7
  proportion of cells with sub G0/G1 (A0) DNA content: 25.34%
PC-3 cells; inhibitor + Ad.vec
  proportion of cells with sub G0/G1 (A0) DNA content: 4.17%
U1A cells (lacking Tyk2); inhibitor + Ad.mda-7
  proportion of cells with sub G0/G1 (A0) DNA content: 17.13%
U1A cells (lacking Tyk2); inhibitor + Ad.vec
  proportion of cells with sub G0/G1 (A0) DNA content: 6.18%

## O=c1c(-c2ccc(O)cc2)coc2cc(O)cc(O)c12 [Genistein]
[1]; inhibitor + Ad.mda-7
  proportion of cells with sub G0/G1 (A0) DNA content: 17.94%
[1]; inhibitor + Ad.vec
  proportion of cells with sub G0/G1 (A0) DNA content: 11.97%
2fTGH cells; inhibitor + Ad.mda-7
  proportion of cells with sub G0/G1 (A0) DNA content: 29.85%
2fTGH cells; inhibitor + Ad.vec
  proportion of cells with sub G0/G1 (A0) DNA content: 8.14%
[2]
  activity of Type I and Type II/GAS IFN reporters: repressed
[3]; inhibitor + Ad.mda-7
  proportion of cells with sub G0/G1 (A0) DNA content: 16.69%
[3]; inhibitor + Ad.vec
  proportion of cells with sub G0/G1 (A0) DNA content: 2.69%
[4]
  Ad.mda-7 induced apoptosis in presence of inhibitor: did not prevent
[5]
  A0 (sub G0/G1) profile in presence of inhibitor: No overall profile change
[6]; inhibitor + Ad.mda-7
  proportion of cells with sub G0/G1 (A0) DNA content: 36.29%
[6]; inhibitor + Ad.vec
  proportion of cells with sub G0/G1 (A0) DNA content: 11.67%
PC-3 cells; inhibitor + Ad.mda-7
  proportion of cells with sub G0/G1 (A0) DNA content: 19.10%
PC-3 cells; inhibitor + Ad.vec
  proportion of cells with sub G0/G1 (A0) DNA content: 3.73%
U1A cells (lacking Tyk2); inhibitor + Ad.mda-7
  proportion of cells with sub G0/G1 (A0) DNA content: 20.83%
U1A cells (lacking Tyk2); inhibitor + Ad.vec
  proportion of cells with sub G0/G1 (A0) DNA content: 8.03%

## C[S+]([O-])c1ccc(-c2nc(-c3ccncc3)c(-c3ccc(F)cc3)[nH]2)cc1 (stereo not drawn) [SB203580]
[7]; Ad.mda-7 100 pfu/cell, days 2 and 3
  Ad.mda-7-mediated induction of GADD family genes (mRNA): significantly inhibited
[7]; [17]
  concentration giving maximum inhibition of GADD gene induction: 1 µM
  concentration giving minimum inhibition of GADD gene induction: 0.01 µM
[7]; SB203580 alone
  basal expression of the GADD family of genes: did not affect the basal expression
FO-1 melanoma cells
  effect on Ad.mda-7 reduction of cell viability: reversed the mda-7 inhibitory effect
FO-1 cells [8]
  most effective concentration, without inducing toxicity: 1 µM
[9]
  Ad.mda-7-induced phosphorylation of HSP27 in presence of p38 MAPK blockade: could be blocked
FO-1 cells [10]
  Ad.mda-7-mediated DNA fragmentation in presence of inhibitor: effectively inhibited
[11]
  blockage of Ad.mda-7 killing: blockage of killing was not obtained
FO-1 cells [12]
  induction of apoptosis by Ad.mda-7 in presence of p38 MAPK blockade: prevented the induction of apoptosis
[13]; Ad.mda-7 100 pfu/cell, 1 μM SB203580, 3 days
  Ad.mda-7-mediated downregulation of the BCL-2 protein: prevented Ad.mda-7-mediated downregulation
[13]; FO-1
  Ad.mda-7-mediated modulation of other pro- or anti-apoptotic proteins: did not have any effect
[14]
  Ad.mda-7-mediated induction of GADD153, GADD34 and GADD45alpha proteins: could inhibit
[15]
  inhibition of Ad.mda-7 killing: Partial inhibition of killing

## COS(C)(=O)=O [methyl methanesulfonate]
[16]
  induction of the GADD family of genes: induces the GADD family of genes

— patent US20050250127A1, “Methods for identifying modulators of MDA-7 mediated apoptosis” (priority 2002, published 2005)
